First the molecules themselves.
B1: OR4K15 (parent)
chain: GUUAACGGUCAUAGGCCAUGGAAACUAGGAGCACCAUUUCGCUGCCAGUGAAGAAAUGAACAAAGAAAAUCUGGGCCAGGCAGGCAUCAAAAGAAAUAGUCUUGCGCUCAACCAGAAAGUCUGUAAUCAUUUUAAGGGUA

Read counts are not given, so values of variants with three or more changes are uncertain.

The series covers variants of B1. Briefly: self-cleavage, relative activity (ratio to wild type); higher = more cleavage; in vitro, sequencing; the parent is a self-cleaving ribozyme.
On to GUUAACGGUCGUAGGCCAUGGAAACUAGGAGCACCAUUUCGCUGCCAGUGAAGAGAUGAACGAAGAAAAUCUGGGCCAGGCAGGCAUCAAAAGAAAUAGUCUUGCGCUCAACCAGAAAGUCUGUAAUCAUUUUAAGGGUA [A11G A55G A62G], for which the self-cleavage was found to be 0.61.

For GUUAACGGUCGUAGGCCAUGGAAACUAGGAGCACCAUUUCGCUGCCAGUGAGGAAAUGAACAAAGAAAAUCUGGGCCAGGCAGGCAUCGAAAGAGAUAGUCUUGCGCUCAACCGGAAAGUCUGUAAUCAUUUUAAGGGUA [A11G A52G A89G A95G A114G], the self-cleavage is 0.68.

Take GUUAACGGUCGUAGGCCAUGGAAACUAGGAGCACCAUUUCGCUGCCAGUGAGGAAAUGAACAAAGAAAAUCUGGGCCAGGCAGGCAUCAAAAGAAAUAGUCUUGCGCUCAACCAGAGAGUCUGUAAUCAUUUUAAGGGUA [A11G A52G A117G]: the self-cleavage is 1.28.

GUUAACGGUCGUAGGCCAUGGAAACUAGGAGCACCAUUUCGCUGCCAGUGAAGAACUGAGCAAAGAAAAUCUGGGCCAGGCAGGCAUCAAAAGAAAUAGUCUUGCGCUCAACCAGAAAGUCUGUAAUCAUUUUAAGGGUA [A11G A56C A60G]: the self-cleavage was 0.59.

In the case of GUUAACGGUCGUAGGCCAUGGAAACUAGGAGCACCAUUUCGCUGCCAGUGACGAAAUGAACAAAGGAAAUCUGGGCCAGGCAGGCAUCAAAAGAAAUAGUCUUGCGCUCAACCAGAAAGUCUAUAAUCAUUUUAAGGGUA [A11G A52C A66G G123A], the self-cleavage is 1.23.

Take GUUAACGGUCGUAGGCCAUGGAAACUAGGAGCACCAUUUCGCUGCCAGUGGAGAAAUGAACAAAGAAAACCUGGGCCAGGCAGGCGCCAAAAGAAAUAGUCUUGCGCUCAACCAGAAAGUUUGUAAUCAUUUUAAGGGUA [A11G A51G U70C A86G U87C C121U]: the self-cleavage came out at 0.74.

GUUAACGGUCGUAGGCCAUGGAAACUAGGAGCACCGUUUCGCUGCCAGUGAAGAAAUGAACAAAGAAAAUCUGGGCCAGGCAGGCAUCAAAAGAGAUAGUCUUGCGCUCAACCAGAAAGUCUGUAAUCAUUUUAAGGGUA [A11G A36G A95G]: the self-cleavage worked out at 1.73.

GUUAACGGUCGUAGGCCAUGGAAACUAGGAGCACCAUUUCGCUGCCAGUGAGGAAAAGAACAAAGAAAAUCUGGGCCAGGCAGGCAUCAAAAGAAAUAGUCUUGCGCUCAACCUGAAAGUCUGUAAUCAUUUUAAGGGUA [A11G A52G U57A A114U]: the self-cleavage worked out at 0.06.

Take GUUAACGGUCGUAGGCCAUGGAAACUAGGAGCACCAUUUCGCUGCCAGUGAGGAAAUGAACAAAGAAAAUCUGGGCCAGGCAGGCAUCAAAAGGAACAGUCUUGCGCUCAACCAGAAAGUCUGUAAUCAUUUUAAGGGUA [A11G A52G A94G U97C]: the self-cleavage came to 0.17.

In the case of GUUAACGGUCGUAGGCCAUGGAAACUAGGAGCACCAUUUCGCUGCCAGUGAAGAAGUGAACAAAGGAAACCUGGGCCAGGCAGGCAUCAAAAGAAAUAGUCUUGCGCUCAACCAGAAGGUCUGUAAUCAUUUUACGGGUA [A11G A56G A66G U70C A118G A135C], the self-cleavage is 0.19.

Consider GUUAACGGUCGUAGGCCAUGGAAACUAGGAGCACCAUUUCGCUGCCAGUGGAGAAAUGAACAAAGAAAUUCUGGGCCAGGCAGGCAUCAAAAGAAAUAGUCUUGCGCUCAACCAGAAAGUCUGUAAUCGUUUUAAGGGUA [A11G A51G A69U A129G], for which the self-cleavage came to 1.34.

As to GUUAACGGUCGUAGGCCAUGGAAACUAGGAGCACCAUUUCGCUGCCAGUGAGGAACUGAACAAAGAAAAUCUGGGCCAGGCAGGCAUCAAAAGAACUAGUCUUGCGCUCAACCAGAAAGUCUGUAAUCAUUUUAAGGGUA [A11G A52G A56C A96C], the self-cleavage is 1.21.

As for GUUAACGGUCGUAGGCCAUGGAAACUAGGAGCACCAUUUCGCUGCCAGUGGAGAAAUGAACAAAGAAAAUCUGGGCCAGGCAGGCACCAAAAGAAAUAGUCUUGCGCUCAACCAGAAAGUCUGUAAUCAUUUUAAGGGUA [A11G A51G U87C], the self-cleavage was 1.56.

As to GUUAACGGUCGUAGGCCAUGGAAACUAGGAGCACCGUUUCGCUGCCAGUGAAGAAAUGAACAAAGAAAAUCUGGGCCAGGCAGGCAUCAAAAGAAAUGGUCUUGCGCUCAACCAGAAAGUCUGUAAUCAUUUUAAGGGUA [A11G A36G A98G], the self-cleavage came out at 0.47.

For GUUAACGGUCGUAGGCCAUGGAAACUAGGAGCACCAUUUCGCUGCCAGUGAUGAAAUGAACAAAGAAAAUCUGGGCCAGGCAGGCAUCAAAAGAAAUAGUCUUGCGCUCAACCAGAAGGUCUGUAAUCAUUUUAAGGGUA [A11G A52U A118G], the self-cleavage stood at 0.59.

GUUAACGGUCGUAGGCCAUGGAAACUAGGAGCACCAUUUCGCUGCCAGUGGAGAAAUGAACAAAGAAAAUCUGGGCCAGGCAGGCAUCAAAAGAAAUAGUCUUGCGCUCAACCAGAAAGUCUGUAAUCAUUUCAAGGGUA [A11G A51G U133C]: the self-cleavage was 0.98.

As to GUUAACGGUCGUAGGCCAUGGAAACUAGGAGCACCAUUUCGCUGCCUGUGGAGAAAUGAACAAAGAGAAUCUGGGCCAGGCAGGCAUCAAAAGAAAUAGUCUUGCGCUCGACCAGAAAGUCUGUAAUCAUUUUAAGGGUA [A11G A47U A51G A67G A110G], the self-cleavage was found to be 0.09.

Regarding GUUAACGGUCGUAGGCCAUGGAAACUAGGAGCACCAUUUCGCUGCCAGUGAAGAGAUGAACAAAGAAAAUCUGGGCCAGGCAGGCAUCAAAAGAAAUAGUCUUGCGCUCAACCAGAAAGUCUGUAAUCAUUUUGAGGGUA [A11G A55G A134G], the self-cleavage stood at 0.87.

For GUUAACGGUCGUAGGCCAUGGAAACUAGGAGCACCAUUUCGCUGCCAGUGAAGAAAUGACCAAAGAAGAUCUGGGCCAGGCAGGCAUCAAAAGAGAUAGUCUUGCGCUCAACCAGAAAGUCUGUAAUCAUUUUAAGGGUA [A11G A60C A68G A95G], the self-cleavage stood at 0.57.

Regarding GUUAACGGUCGUAGGCCAUGGAAACUAGGAGCACCAUUUCGCUGCCUGUGAAGAAAUGAACAAAGAGAAUCUGGGCCAGGCAGGCAUCAAAAGUAAUAGUCUUGCGCUCGACCAGAAAGUCUGUAAUCAUUUUAAGGGUA [A11G A47U A67G A94U A110G], the self-cleavage amounted to 0.09.

For the variant GUUAACGGUCGUAGGCCAUGGAAACUAGGAGCACCAUUUCGCUGCCUGUGAAGAAAUGAACAAAGAAAAUCUGGGCCAGGCAGGCAUCAAAAGAAAUAGUCUUGCGCUCAACCAGAAAGUCUGUAAUCAUUUUAAGGGUG [A11G A47U A140G], the self-cleavage is 0.99.

The values above are taken from the RNAGym collection of RNA variant scans (doi:10.7554/elife.90254).
